{"source": "a collection of fitness landscapes (doi:10.1016/j.celrep.2020.107928)", "parents": {"B1": {"name": "Caulobacter ParB omega fusion; a variant is named by its letters at X, in order, B8GW30 (parent)", "chain": "MESVVVGEPGMSEGRRGLGRGLSALLGEVDAAPAQAPGEQLGGSREAPIEILQRNPDQPRRTFREEDLEDLSNSIREKGVLQPILVRPSPDTAGEYQIVAGERAWRAAQRAGLKTVPIMVRELDDLAVLEIGIIENVQRADLNVLEEALSYKVLMEKFERTQENIAQTIGKSXSHVANXMRLLXLPDEVQSYLVSGELTAXHARAIAAAADPVALAKQIIEGGLSVRETEALARKAPNLSAGKSKGGRPPRVKDTDTQALESDLSSVLGLDVSIDHRGSTGTLTITYATLEQLDDLCNRLTRGI"}}, "note": "In all, about 81,000 sequences were measured (“one-hybrid fitness for binding parS DNA”: median about -0.17, highest 2% from about 0.51 on). Some of the results follow.", "data": [{"variants_of": "B1", "test": "one-hybrid fitness for binding parS DNA (scaled: cognate 1, non-cognate 0); higher = stronger binding", "details": "with parS DNA site", "outline": "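In E. coli USO, a HIS3 reporter with its site placed 19 bp from the promoter was used to select Caulobacter ParB variants randomised at four specificity codons. Growth lasted 48 hours at 37°C on histidine-free M9 containing 0.1 mM IPTG and 5 mM 3-AT. Fitness was taken as the log change in variant-to-wild-type read ratio from Illumina sequencing of pre- and post-selection plasmids, rescaled between the non-cognate and cognate sites.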", "values": [{"variant": "AKVL", "one-hybrid fitness for binding parS DNA": "≤ 0.2"}, {"variant": "PANI", "one-hybrid fitness for binding parS DNA": "≤ 0.2"}, {"variant": "KYYL", "one-hybrid fitness for binding parS DNA": "≤ 0.2"}, {"variant": "SFHT", "one-hybrid fitness for binding parS DNA": "≤ 0.2"}, {"variant": "STPK", "one-hybrid fitness for binding parS DNA": "≤ 0.2"}, {"variant": "LPMG", "one-hybrid fitness for binding parS DNA": "≤ 0.2"}, {"variant": "GSIT", "one-hybrid fitness for binding parS DNA": "≤ 0.2"}, {"variant": "QWKK", "one-hybrid fitness for binding parS DNA": "≤ 0.2"}, {"variant": "VVGH", "one-hybrid fitness for binding parS DNA": "≤ 0.2"}, {"variant": "QCYR", "one-hybrid fitness for binding parS DNA": "≤ 0.2"}, {"variant": "RQNQ", "one-hybrid fitness for binding parS DNA": "≤ 0.2"}, {"variant": "RNKW", "one-hybrid fitness for binding parS DNA": 0.276}, {"variant": "ELEG", "one-hybrid fitness for binding parS DNA": "≤ 0.2"}, {"variant": "YYKR", "one-hybrid fitness for binding parS DNA": "≤ 0.2"}, {"variant": "KKTM", "one-hybrid fitness for binding parS DNA": "≤ 0.2"}, {"variant": "KTPP", "one-hybrid fitness for binding parS DNA": "≤ 0.2"}, {"variant": "QNLF", "one-hybrid fitness for binding parS DNA": "≤ 0.2"}, {"variant": "SIKI", "one-hybrid fitness for binding parS DNA": "≤ 0.2"}, {"variant": "KPGW", "one-hybrid fitness for binding parS DNA": "≤ 0.2"}, {"variant": "PSCY", "one-hybrid fitness for binding parS DNA": "≤ 0.2"}, {"variant": "RSKG", "one-hybrid fitness for binding parS DNA": 0.944}, {"variant": "HTES", "one-hybrid fitness for binding parS DNA": "≤ 0.2"}, {"variant": "EHMI", "one-hybrid fitness for binding parS DNA": "≤ 0.2"}, {"variant": "PAWC", "one-hybrid fitness for binding parS DNA": "≤ 0.2"}, {"variant": "THRV", "one-hybrid fitness for binding parS DNA": "≤ 0.2"}, {"variant": "LQPH", "one-hybrid fitness for binding parS DNA": "≤ 0.2"}, {"variant": "RAVR", "one-hybrid fitness for binding parS DNA": "≤ 0.2"}, {"variant": "VYTE", "one-hybrid fitness for binding parS DNA": "≤ 0.2"}, {"variant": "GLWT", "one-hybrid fitness for binding parS DNA": "≤ 0.2"}, {"variant": "RGHR", "one-hybrid fitness for binding parS DNA": "≤ 0.2"}, {"variant": "QQTK", "one-hybrid fitness for binding parS DNA": "≤ 0.2"}, {"variant": "IRHL", "one-hybrid fitness for binding parS DNA": "≤ 0.2"}, {"variant": "LPEF", "one-hybrid fitness for binding parS DNA": "≤ 0.2"}, {"variant": "AVHY", "one-hybrid fitness for binding parS DNA": "≤ 0.2"}, {"variant": "WSWG", "one-hybrid fitness for binding parS DNA": "≤ 0.2"}, {"variant": "LPPL", "one-hybrid fitness for binding parS DNA": "≤ 0.2"}, {"variant": "PNVV", "one-hybrid fitness for binding parS DNA": "≤ 0.2"}, {"variant": "NPDC", "one-hybrid fitness for binding parS DNA": "≤ 0.2"}, {"variant": "DAVH", "one-hybrid fitness for binding parS DNA": "≤ 0.2"}, {"variant": "RPHQ", "one-hybrid fitness for binding parS DNA": "≤ 0.2"}, {"variant": "FAIT", "one-hybrid fitness for binding parS DNA": "≤ 0.2"}, {"variant": "RQCY", "one-hybrid fitness for binding parS DNA": 0.412}, {"variant": "GMDW", "one-hybrid fitness for binding parS DNA": "≤ 0.2"}, {"variant": "WIVG", "one-hybrid fitness for binding parS DNA": "≤ 0.2"}, {"variant": "IHRW", "one-hybrid fitness for binding parS DNA": "≤ 0.2"}, {"variant": "IRVR", "one-hybrid fitness for binding parS DNA": "≤ 0.2"}, {"variant": "YYIR", "one-hybrid fitness for binding parS DNA": "≤ 0.2"}, {"variant": "NYPC", "one-hybrid fitness for binding parS DNA": "≤ 0.2"}, {"variant": "YRTV", "one-hybrid fitness for binding parS DNA": "≤ 0.2"}, {"variant": "AGRH", "one-hybrid fitness for binding parS DNA": "≤ 0.2"}, {"variant": "YRCF", "one-hybrid fitness for binding parS DNA": "≤ 0.2"}, {"variant": "SASE", "one-hybrid fitness for binding parS DNA": "≤ 0.2"}, {"variant": "QFGF", "one-hybrid fitness for binding parS DNA": "≤ 0.2"}, {"variant": "FDNS", "one-hybrid fitness for binding parS DNA": "≤ 0.2"}, {"variant": "AMLC", "one-hybrid fitness for binding parS DNA": "≤ 0.2"}, {"variant": "PLLD", "one-hybrid fitness for binding parS DNA": "≤ 0.2"}, {"variant": "SKLV", "one-hybrid fitness for binding parS DNA": "≤ 0.2"}, {"variant": "HEKS", "one-hybrid fitness for binding parS DNA": "≤ 0.2"}, {"variant": "GLMR", "one-hybrid fitness for binding parS DNA": "≤ 0.2"}, {"variant": "AVGA", "one-hybrid fitness for binding parS DNA": "≤ 0.2"}, {"variant": "MGTV", "one-hybrid fitness for binding parS DNA": "≤ 0.2"}, {"variant": "FPSY", "one-hybrid fitness for binding parS DNA": "≤ 0.2"}, {"variant": "QERG", "one-hybrid fitness for binding parS DNA": "≤ 0.2"}, {"variant": "APWR", "one-hybrid fitness for binding parS DNA": "≤ 0.2"}, {"variant": "YTRG", "one-hybrid fitness for binding parS DNA": "≤ 0.2"}, {"variant": "AVDM", "one-hybrid fitness for binding parS DNA": "≤ 0.2"}, {"variant": "HGCT", "one-hybrid fitness for binding parS DNA": "≤ 0.2"}, {"variant": "LKTC", "one-hybrid fitness for binding parS DNA": "≤ 0.2"}, {"variant": "RGIY", "one-hybrid fitness for binding parS DNA": "≤ 0.2"}, {"variant": "RFSI", "one-hybrid fitness for binding parS DNA": "≤ 0.2"}, {"variant": "QQIV", "one-hybrid fitness for binding parS DNA": "≤ 0.2"}, {"variant": "RNWF", "one-hybrid fitness for binding parS DNA": "≤ 0.2"}, {"variant": "AGRG", "one-hybrid fitness for binding parS DNA": "≤ 0.2"}, {"variant": "HHPV", "one-hybrid fitness for binding parS DNA": "≤ 0.2"}, {"variant": "PHFN", "one-hybrid fitness for binding parS DNA": "≤ 0.2"}, {"variant": "QHGM", "one-hybrid fitness for binding parS DNA": "≤ 0.2"}, {"variant": "QVAN", "one-hybrid fitness for binding parS DNA": "≤ 0.2"}]}]}
